# Assay results as given in US5877202A, “Indole derivatives useful to treat estrogen-related neoplasms and disorders” (priority 1996, dated 1999).
# Test system: estradiol-dependent luciferase reporter plasmid in MCF-7 cells
# Assay: Inhibition of estradiol-stimulated transcription of luciferase reporter plasmid in MCF-7 cells
# Assay type: cell-based
# Conditions: Homo sapiens, MCF7, 18 to 22 hr
# Excerpt: Shapiro, D. J., et al., Prog.
row,SMILES,IC50
1,"CCCCN(C)C(=O)CCCCCCCNC(=O)Cc1c(C)n(C(=O)c2ccc(Cl)cc2)c2ccc(O)cc12 [MDL 101,906, 8-[[5-Hydroxy-1-(4-chlorobenzoyl)-2-methyl-1H-indol-3-yl]-acetylamino]-octanoic acid methyl-butyl-amide]",5.2 µM
2,"CCCCN(C)C(=O)CCCCCCCNC(=O)Cc1c(-c2ccc(O)cc2)n(Cc2ccccc2)c2ccc(O)cc12 [MDL 103,324, 8-[[5-Hydroxy-1-benzyl-2-[(4-hydroxy)-phenyl]-1H-indol-3-yl]-acetylamino]-octanoic acid methyl-butyl-amide]",2.7 µM
3,"CCCCN(C)C(=O)CCCCCCCNC(=O)Cc1c(C)n(C(=O)c2ccccc2)c2ccc(O)cc12 [MDL 105,813, 8-[[5-Hydroxy-1-benzoyl-2-methyl-1H-indol-3-yl]-acetylamino]-octanoic acid methyl-butyl-amide]",8.4 µM
